# Laboratory results as given in the supplement of paper PMC8183993.
# In all, about 3,100 compounds were measured (“mean cytoplasmic OPP incorporation (global translation) relative to DMSO”: median about 100, lowest 2% from about 56 on). This is one part of the list.
# System: U2OS
# Assay: mean cytoplasmic OPP incorporation (global translation) relative to DMSO (% of DMSO); higher = more protein synthesis
# Conditions: 10 µM; 24 h
# Protocol: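 Primary image-based screen in U2OS cells: compounds at 10 uM for 24 h, then a 1 h o-propargyl-puromycin (OPP) pulse, click labelling, and high-throughput microscopy. Mean cytoplasmic OPP intensity and nuclei count were normalised to DMSO wells within each plate (DMSO = 100) and averaged over triplicate plates.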
row,Compound,mean cytoplasmic OPP incorporation
1,CCCNC(=O)N1N=C(c2ccc(N)cc2)c2cc3c(cc2C1C)OCO3 (stereo unspecified),107
2,Cc1c(Nc2ncccc2C(=O)O)cccc1C(F)(F)F [Flunixin meglumine],106
3,CC[C@H](c1ccc(O)cc1)[C@@H](CC)c1ccc(O)cc1 [Hexestrol (Bibenzyl)],104
4,CC[C@H](c1ccc(O)cc1)[C@@H](CC)c1ccc(O)cc1 [Hexestrol],106
5,Cc1ccc2c(c1)c1c(n2CCc2ccc(C)nc2)CCN(C)C1 [Dimebon (Latrepirdine)],108
6,COc1ccc(CNc2nc(N3CCC[C@H]3CO)ncc2C(=O)NCc2ncccn2)cc1Cl [Avanafil],110
7,O=C1NC(c2cccc([N+](=O)[O-])c2)=CCN1c1ccccc1O [Icilin],99
8,CC(=O)OCC(=O)[C@@]1(O)CC[C@H]2[C@@H]3CCC4=CC(=O)C=C[C@]4(C)[C@H]3[C@@H](O)C[C@@]21C [Prednisolone acetate (Omnipred)],103
9,CCCN(CC1CC1)c1nc(C)nc(Nc2c(Cl)cc(Cl)cc2Cl)c1Cl,105
10,CN1CCN(C(=O)c2cc3cc(Cl)ccc3[nH]2)CC1,103
11,O=C(Nc1ncc(SCCN2CCCC2)s1)[C@]1(c2ccc(S(=O)(=O)C3CC3)cc2)C[C@H]1C1CCCCC1,128
12,O=C(O)CCCN1CCC(O[C@@H](c2ccc(Cl)cc2)c2ccccn2)CC1 [Bepotastine Besilate],110
13,C[C@H]1C[C@H]2[C@@H]3CCC4=CC(=O)C=C[C@]4(C)[C@H]3C(=O)C[C@]2(C)[C@@]1(O)C(=O)CO [Betapar (Meprednisone)],119
14,CC1(C)O[C@@H]2C[C@H]3[C@@H]4C[C@H](F)C5=CC(=O)CC[C@]5(C)[C@H]4[C@@H](O)C[C@]3(C)[C@]2(C(=O)CO)O1 [Flurandrenolide],97.9
15,CCC(=O)OCC(=O)[C@@]1(OC(=O)CC)[C@@H](C)C[C@H]2[C@@H]3CCC4=CC(=O)C=C[C@]4(C)[C@@]3(F)[C@@H](O)C[C@@]21C [Betamethasone Dipropionate (Diprolene)],118
16,Cc1ccc(S(=O)(=O)OCC(=O)Nc2ccc(C(=O)O)c(O)c2)cc1,101
17,COc1ccc(Br)cc1S(=O)(=O)NC(=O)/C=C/c1ccccc1Cc1ccc2ccccc2c1,102
18,CN1CCN(C(=O)c2nc3ccc(Cl)cc3[nH]2)CC1,81.1
19,Nc1ncn(C2CC(O)C(CO)O2)c(=O)n1 (stereo unspecified) [5-Aza-2-deoxycytidine],94.5
20,NNC(=O)c1ccncc1 [Isoniazid],76
21,CN(C(=O)CCCOc1ccc2[nH]c(=O)ccc2c1)C1CCCCC1 [Cilostamide],92.3
